In PubChem BioAssay AID1345082 (National Center for Advancing Translational Sciences (NCATS), 2018):
In all, about 94,000 compounds went through this assay and about 4,000 (4.3%) were called active. Inconclusive results, whose numbers are uncertain, are shown with a selection of clear calls. Calls follow the shape of the dose curve; as a rule, active = well fitted inhibition curve with a large enough effect; inconclusive = small, poorly fitted or top-dose-only effect; inactive = no such curve, though single readings can be large or run the other way. Potencies of inconclusive entries are doubtful fits and often do not repeat.

Assay: Cytotoxic Profiling in NIH 3T3 Cell Line of Diverse Libraries Using Quantitative High-Throughput Screening; also: nearly all actives have a fitted effect of over 55% in size
Conditions: NIH 3T3 viability, CellTiter-Glo ATP luminescence, 48-72 h; series mostly up to 96.7 µM
Outline: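 First NIH 3T3 cells are plated at 400 cells/well; next compound is pinned in; then plates incubate 48 or 72 hr at 37 °C; finally CellTiter-Glo is added and luminescence read after 10 min.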
Potency is read from the fitted curve at half-maximal effect; tags tell the direction and shape of the fitted curve.

Structure (SMILES) | Potency
CCc1[nH]c2ccc(CNC(=O)c3scc4c3OCCO4)cc2c1C | inactive
COc1ccccc1-n1c(=O)c(C(=O)N2CCN([S+](=O)([O-])c3ccc(C)cc3)CC2)nc2cccnc21 | inconclusive: 50.1 µM [inhibitor, single point]
CCCC(C)NC(=O)C1CCCN1C(=O)c1cccc(-c2cccnc2)c1 (stereo unspecified) | inactive
CCc1nc(-c2ccc(OC3CCN(Cc4cc(F)ccc4F)C3)cc2)no1 (stereo unspecified) | inactive
O=C(NC1CCN(Cc2cccc(-c3ccc(F)c(F)c3)c2)CC1)c1ccccc1 | inconclusive: 31.6 µM [inhibitor, full curve, poor fit]
CC(C)CC(=O)N1CCCCCNC(=O)[C@H]2C[C@H](C(=O)N3CCc4ccccc4C3)C[C@H]21 | inactive
Cc1noc2c(N3CCC(c4ccccc4)CC3)cc(-c3cccnc3)nc12 | inactive
Oc1ccccc1CNC1(Cc2cc(-c3ccc(F)cc3)on2)COC1 | inconclusive: 100 µM [inhibitor, partial curve]
CCOc1cc(C(=O)N2CCC[C@H]2c2nc(-c3ccccc3Cl)no2)cc(OCC)c1OCC | inconclusive: 70.8 µM [inhibitor, single point]
COc1ccc(CCNC(=O)C2CCCCC(=O)N2C)cc1OC (stereo unspecified) | inactive
COc1ccnc(-c2nnc3ccc(Nc4cc(OC)c(OC)c(OC)c4)nn23)c1 | active: 50.1 µM
Cc1ccc(-c2noc([C@@H]3C[C@H](NC(=O)CC(C)(C)CC(=O)O)CN3C)n2)cc1 | inconclusive: 126 µM [inhibitor, single point]
CNCCN1C(=O)CC[C@H]2CN(Cc3cc(C4CCCCC4)no3)CC[C@H]21 | inactive
O=C1NCN(Cc2ccc(Cl)cc2)C12CCN([S+](=O)([O-])c1cccs1)CC2 | inactive
c1ccc(CN2CC[C@H](c3nc4ccccc4o3)C2)nc1 | inconclusive: 20 µM [inhibitor, full curve]
Cc1cc(=O)n(CC(=O)Nc2ccc(Br)cc2)c(N2CCOCC2)n1 | inconclusive: 50.1 µM [inhibitor, partial curve, poor fit]
CC(C)c1ccc(CC(=O)N2CCCc3ncc(C(=O)N(C)Cc4ccccc4)cc32)cc1 | inconclusive: 56.2 µM [inhibitor, single point]
CNC(=O)c1cc[nH]c1C1CCCN(C(=O)CCc2c[nH]c3ccccc23)C1 (stereo unspecified) | inconclusive: 39.8 µM [inhibitor, partial curve, poor fit]
CNCc1ccc(OC(F)(F)F)cc1 | inactive
Cc1cc(C(=O)N2CCNCC(O)C2)c(-c2ccccc2)o1 (stereo unspecified) | inactive
CC(C)CCN1CCn2c(nn(-c3ccc(Cl)cc3)c2=O)C1 | inconclusive: 50.1 µM [inhibitor, partial curve, poor fit]
O=C(c1ccccc1)N1CCC2(CC1)CC(=O)N(c1ccccc1)c1ccccc1O2 | inactive

Structure (SMILES) | Potency
CCOc1ccc(NC(=O)Cn2c(Nc3cc(C)cc(C)c3)nc(C)cc2=O)cc1 | active: 31.6 µM
O=C(c1ccncc1)N1CC(Oc2ccccc2-c2nc(C3CC3)no2)C1 | inactive
Cn1ncc2c(C(=O)NC3CCOC3)cc(-c3ccccc3C(F)(F)F)nc21 (stereo unspecified) | inconclusive: 63.1 µM [inhibitor, partial curve, poor fit]
O=C(Nc1ccc2nnc(-c3ccc(C(=O)N4CCCCC4)cc3)n2c1)C1CCC1 | inactive
CC(C)c1cccc(NC(=O)Cn2cccc2-c2nc(-c3ccc4c(c3)OCO4)no2)c1 | active: 28.2 µM
CO[C@@]1(C)C[C@@H](O)C12CCN(C(=O)CN1CCc3ccccc3C1)CC2 | inactive
CC(C)CNC(=O)C1CCCN(c2ccnc3ccnn23)C1 (stereo unspecified) | inconclusive: 70.8 µM [inhibitor, partial curve, poor fit]
Cc1ccccc1CN1CCC2(CC1)OCCN(Cc1ccccc1)C2=O | inconclusive: 44.7 µM [inhibitor, partial curve, poor fit]
O=C(CN1C(=O)C(c2ccccc2)=NC12CCCCCC2)Nc1cccc(Cl)c1 | inconclusive: 50.1 µM [inhibitor, partial curve, poor fit]
O=C1Cc2c(-c3ccccc3Cl)n[nH]c2CN1Cc1ccccc1 | inconclusive: 50.1 µM [inhibitor, full curve]
Cc1cccc(NC(=O)N2CCC(Cc3nncn3CC3CC3)CC2)c1 | inconclusive: 70.8 µM [inhibitor, single point]
N#Cc1ccc(CN2CCCCCNC(=O)[C@@H]3CCC[C@@H]32)cc1 | inconclusive: 44.7 µM [inhibitor, partial curve]
O=C(NCC(=O)N1CCN(c2ncccn2)CC1)c1ccc(-c2cnc3ccccc3c2)cc1 | inconclusive: 10 µM [inhibitor, full curve, poor fit]
O=C(c1cc[n+]([O-])cc1)N1CCC2(CCCN(CCC3CCCCC3)C2)C1 (stereo unspecified) | inactive
COc1cccc(C(=O)N(C)Cc2ccc(-c3ccccc3)cc2)c1 | inconclusive: 79.4 µM [inhibitor, partial curve]
Cc1cccc(Cl)c1NC(=O)Cn1ccn2nc(-c3ccccc3)c(CO)c2c1=O | inconclusive: 50.1 µM [inhibitor, partial curve, poor fit]
O=C(NC1CCCCCC1)c1cn2cc(-c3cccc(C(F)(F)F)c3)sc2n1 | inactive
COc1cccc(S(=O)(=O)N2CCn3ncc(C(=O)NCc4ccc(Cl)nc4)c3C2)c1 | inconclusive: 70.8 µM [inhibitor, single point]
CSCCC(=O)N1CCOC(Cc2cccc3ccccc23)C1 (stereo unspecified) | inconclusive: 50.1 µM [inhibitor, partial curve, poor fit]
Cn1ccnc1-c1ccc(N2CCC(C(O)Cc3ccccc3)CC2)nn1 (stereo unspecified) | inconclusive: 8.91 µM [inhibitor, full curve, poor fit]
O=C(CN1C(=O)NC2(CCCCC2)C1=O)Nc1ccc(Cl)cc1 | inconclusive: 31.6 µM [inhibitor, full curve, poor fit]
O=C(NCCCc1ccccc1)c1n[nH]c2c1CN(C(=O)c1ccc(Cl)cc1)CC2 | inconclusive: 39.8 µM [inhibitor, partial curve]

Structure (SMILES) | Potency
CCOc1cccc(-c2nc(C(=O)NCCOC)cs2)c1 | inconclusive: 50.1 µM [inhibitor, partial curve, poor fit]
O=C(CCCc1ccccc1)N1CCC(Cc2nncn2-c2ccccc2)C1 (stereo unspecified) | inactive
COc1ccc(C(=O)N2CCOC3(CCN(C(=O)c4c(C)noc4C)CC3)C2)cc1 | inconclusive: 70.8 µM [inhibitor, single point]
CN1c2cc(C(=O)NCc3ccncc3)ccc2C(=O)N2CCCCC21 (stereo unspecified) | inconclusive: 39.8 µM [inhibitor, partial curve, poor fit]
O=C(NCCN1CCOCC1)c1cn2cc(-c3ccc(F)cc3)sc2n1 | inactive
CCNC(=O)N1CC(C(=O)NCc2cccc(C)c2)CC(c2ccc(F)c(C)c2)C1 (stereo unspecified) | inconclusive: 44.7 µM [inhibitor, partial curve, poor fit]
CN1CCN(c2ccc3nnc(-c4cc(C(=O)N(C)Cc5ccccc5)ccn4)n3n2)CC1 | inconclusive: 50.1 µM [inhibitor, partial curve, poor fit]
CCn1cc(-c2ccc(OC)cc2)cc1C(=O)N1CCCCCC1 | inactive
COCCNC(=O)c1cc(-c2ccc(F)cc2OC)cc2ncn(C)c12 | inconclusive: 79.4 µM [inhibitor, partial curve]
O=C(NCC(=O)N1CCCC1)c1cccc(-c2ccc(C(F)(F)F)cc2)c1 | inconclusive: 22.4 µM [inhibitor, partial curve]
COc1ccc(CCN2CCCC3(C2)C(=O)N(C)C(=O)N3C)cc1 (stereo unspecified) | inactive
COc1ccc(CN2C[C@H]3CN(Cc4cccc(OC(F)(F)F)c4)CCN3C2=O)cc1 | inconclusive: 44.7 µM [inhibitor, partial curve, poor fit]
CCC(CC)NC(=O)c1ccc(-c2nnc3ccc(NC(=O)C4CCC4)cn23)cc1 | inconclusive: 50.1 µM [inhibitor, partial curve, poor fit]
Cc1ccc(C(=O)N2CCC3(CC2)CC(=O)c2ccc(Cl)cc2O3)cc1 | active: 35.5 µM
COc1ccc(C(=O)N2CCN(c3cc(-c4cccs4)[nH]n3)CC2)c(C)c1 | inconclusive: 10 µM [inhibitor, full curve, poor fit]
CN1C(=O)[C@@H]2C[C@@H](O)CN2C2(CN(Cc3ccc(F)c(F)c3)C2)C1=O | inactive
CN(C)c1cccc(-c2cn(C)c(=O)n3cc(COc4ccc(Cl)cc4)nc23)c1 | inconclusive: 50.1 µM [inhibitor, partial curve, poor fit]
COc1ccc(-c2cc(C(=O)NCC(F)(F)F)nn3cnnc23)cc1 | inconclusive: 44.7 µM [inhibitor, partial curve, poor fit]
CCOc1ccc(C(=O)N2CCC[C@H]2c2nc(-c3ccccc3Cl)no2)cc1 | active: 20 µM
CNC(=O)c1ccc2c(c1)OCCN(c1cccc(OC(F)(F)F)c1)C2 | inconclusive: 79.4 µM [inhibitor, partial curve, poor fit]
O=C(Nc1ccccc1)N1CCC(N2C(=O)C(OCC3CC3)C23CCCCC3)CC1 (stereo unspecified) | inconclusive: 44.7 µM [inhibitor, partial curve, poor fit]
CCOCCOC1CCN(C(=O)c2ccc3c(c2)c2ccccc2n3CC)CC1 | inconclusive: 44.7 µM [inhibitor, partial curve, poor fit]
